Experimental data reported in paper PMC4336329 (PLoS ONE, 2015).
Hit rate of the full screen: of about 310,000 compounds, about 2,200 (0.71%) showed an effect of 50% or more. The effect is printed as a negative number. This is one part of the list.

What follows are compounds tested against human ether-à-go-go-related gene (hERG) potassium channel (human, UniProt Q12809) (assay: primary screen, population patch clamp on CHO cells stably expressing hERG).
Chain of human ether-à-go-go-related gene (hERG) potassium channel (Q12809 whole entry, looked up): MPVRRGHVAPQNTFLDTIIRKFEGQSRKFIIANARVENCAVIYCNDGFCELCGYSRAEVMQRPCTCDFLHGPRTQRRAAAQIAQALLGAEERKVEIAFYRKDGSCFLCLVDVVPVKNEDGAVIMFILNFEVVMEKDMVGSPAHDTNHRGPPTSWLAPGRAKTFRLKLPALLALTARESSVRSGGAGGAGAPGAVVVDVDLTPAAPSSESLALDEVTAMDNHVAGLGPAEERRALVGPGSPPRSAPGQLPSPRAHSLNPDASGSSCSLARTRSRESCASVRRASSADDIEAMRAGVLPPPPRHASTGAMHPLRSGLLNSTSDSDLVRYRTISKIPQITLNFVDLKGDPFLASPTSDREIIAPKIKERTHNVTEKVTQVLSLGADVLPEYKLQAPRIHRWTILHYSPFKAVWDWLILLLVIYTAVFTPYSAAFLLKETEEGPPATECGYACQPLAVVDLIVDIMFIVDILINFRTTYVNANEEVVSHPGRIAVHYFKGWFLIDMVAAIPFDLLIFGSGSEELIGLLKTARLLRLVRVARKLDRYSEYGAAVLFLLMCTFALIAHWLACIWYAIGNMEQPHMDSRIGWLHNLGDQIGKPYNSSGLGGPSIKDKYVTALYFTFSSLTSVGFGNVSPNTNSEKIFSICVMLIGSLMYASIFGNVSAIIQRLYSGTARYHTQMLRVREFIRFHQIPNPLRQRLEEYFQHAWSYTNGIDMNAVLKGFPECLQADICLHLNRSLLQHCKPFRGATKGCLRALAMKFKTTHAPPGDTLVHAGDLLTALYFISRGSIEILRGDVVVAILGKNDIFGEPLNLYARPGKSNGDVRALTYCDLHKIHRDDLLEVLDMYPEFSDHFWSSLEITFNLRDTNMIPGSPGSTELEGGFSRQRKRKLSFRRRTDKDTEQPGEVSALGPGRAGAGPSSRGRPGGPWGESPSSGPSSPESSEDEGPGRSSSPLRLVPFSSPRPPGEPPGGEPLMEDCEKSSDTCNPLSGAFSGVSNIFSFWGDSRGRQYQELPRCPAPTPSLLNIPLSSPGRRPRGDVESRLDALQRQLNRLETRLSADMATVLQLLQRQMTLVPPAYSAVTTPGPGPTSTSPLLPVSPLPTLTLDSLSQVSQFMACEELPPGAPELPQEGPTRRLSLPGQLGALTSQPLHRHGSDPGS

Compound | hERG current change (%, negative = inhibition) at 1uM
Cc1ccc2nc3c(cc2c1)c(NC(=O)C1CCCO1)nn3CC(C)C (stereo not shown) | -11.3%
COc1ccc(Nc2nnc(-c3ccc(O)cc3)c3ccccc23)cc1 | 2.63%
Cc1ccc2c(c1)N(CC(=O)N1CCCCC1c1cccnc1)C(=O)CO2 (stereo not shown) | -13.4%
COC(=O)C(C)Sc1nc2c([nH]c3ccccc32)c(=O)n1C (stereo not shown) | 2.24%
COc1cccc2cc(C(=O)N3CCN(c4ccc(C)cc4C)CC3)c(=O)oc12 | 11.9%
CC(=O)Nc1ccc(NC(=O)COc2ccc(S(=O)(=O)N3CCCC3)cc2C)cc1 | 12%
CC(C)OCCCNC(=O)C(Cc1ccccc1)NS(=O)(=O)c1ccc2c(c1)CCC(=O)N2 (stereo not shown) | 13.3%
Nc1nn(-c2ccccc2)nc1C(=O)OCc1ccccc1F | 10.3%
CCCCC(=O)Nc1nc(C)c(-c2csc(Nc3ccccc3OC)n2)s1 | -3.5%
O=C(/C=C/c1c(Cl)nc2ccccn12)N1CCCCC1 | 8.18%
COC(=O)c1c(NC(=O)C(=O)N2CCOCC2)sc2c1CCCC2 | 16%
COCCNCCOc1ccccc1-c1ccccc1.O=C(O)C(=O)O | 1.58%
O=C(OCc1nc2ccccc2[n+]([O-])c1C(=O)c1ccccc1)c1ccco1 | 9.63%
CN(Cc1ccccc1)C(=O)COC(=O)CNS(=O)(=O)c1ccc2ccccc2c1 | 5.86%
CCc1nc2sc(C)c(C)c2c(=O)n1CCO | 14.1%
Cn1c(N)c(C(=O)COC(=O)/C=C/c2ccc(Cl)cc2)c(=O)n(C)c1=O | 2.92%
Cc1ccc(NC2=NC(c3ccc(C)cc3)n3c(nc(C)cc3=O)N2)cc1 (stereo not shown) | 25.6%
COc1ccc(OCC(=O)NCCc2ccc(S(N)(=O)=O)cc2)cc1 | 0.271%
CCN(CC)C(=O)/C(=C\c1cccc([N+](=O)[O-])c1)NC(=O)c1ccco1 | 2.17%
C/C=C/Cn1c(N2CCCCCC2)nc2c1c(=O)[nH]c(=O)n2C | 5.19%
Cn1nnnc1SCC(=O)Nc1cc(C(C)(C)C)nn1-c1ccccc1 | -3.42%
COc1ccc(-c2cnnn2-c2ccc(NC(=O)c3ccc(S(=O)(=O)N4CCCCC4)cc3)cc2)cc1OC | 4.41%
COc1ccc(OC)c(S(=O)(=O)N/N=C\c2c[nH]c3ccccc23)c1 | 12.5%
COCc1nnc(NC(=O)c2ccccc2[N+](=O)[O-])s1 | 15%
O=C(COc1ccc(C(=O)c2ccccc2)cc1)Nc1cccnc1 | 43.8%
C=CCn1c(SCC(=O)Nc2nnc(CC)s2)nnc1-c1cccnc1 | 19.9%
CC(=O)N1CCc2c(sc(NC(=O)CCS(=O)(=O)c3ccccc3)c2C#N)C1 | 12.4%
CC(=O)c1sc(-c2ccc(F)cc2F)nc1C | 13.3%

Compound | hERG current change (%, negative = inhibition) at 1uM
CC(C)(C)CN1C(N)=NC[C@@H]1Cc1ccccc1 | 7.31%
CCOc1ccccc1C(=O)Nc1cc(C(=O)NCCc2ccccc2)ccc1Cl | 11.9%
CSc1nc2nccc(-c3ccc4c(c3)OCO4)n2n1 | 15.6%
COC(=O)c1cc(C#N)c(N2CCOCC2)nc1C | 10%
COCCn1c(C)cc(C(=O)COC(=O)CCN2C(=O)c3ccccc3C2=O)c1C | 8.17%
CC(=O)Nc1ccccc1C(=O)C(=O)Nc1ccc(C)c(F)c1 | 14.8%
NS(=O)(=O)c1ccc(NC(=O)COC(=O)/C=C/c2ccc([N+](=O)[O-])cc2)cc1 | 11.7%
CCC(C)(C)n1nnnc1CN1CCN(c2nc3ccc(C)cc3cc2C#N)CC1 | 1.23%
CCCCN1CCN=C1N(C)C | 8.24%
CCOC(=O)CCCNC(=O)CCNC(=O)c1ccc(OCC)cc1 | 4.22%
O=C(NCc1ccccc1Cl)C1CCCN1S(=O)(=O)c1ccc(F)cc1 (stereo not shown) | 9.99%
Cc1ccc(C(=O)OCC(=O)NC(C)C)cc1S(=O)(=O)N1CCOCC1 | 12.1%
O=C1Nc2ccc(S(=O)(=O)NCC3CCCO3)c3cccc1c23 (stereo not shown) | 5.44%
COc1ccc(S(=O)(=O)Nc2ccc(S(=O)(=O)Nc3cc(C)nc(C)n3)cc2)cc1OC | 16.7%
COc1cccc(C(=O)Nc2cc([N+](=O)[O-])ccc2N2CCN(C)CC2)c1 | -49.3%
CCOC(=O)c1c(Nc2ccccc2)sc(/C=C2\C=Nc3ccccc32)c1O | 1.98%
Cc1ccccc1NC(=O)c1cccc(S(=O)(=O)N2CCCCC2)c1 | 1.16%
CCc1ccc(OCCn2ccnc2)cc1 | 12.8%
COC(=O)C1=C(O)/C(=C/c2ccc(OCC(=O)Nc3ccccc3)cc2)N=C1C | 11%
O=C(N/N=C/c1ccsc1)c1ccc2c(c1)OCO2 | 11.9%
COc1ccc(C)cc1NC(=O)C(OC(=O)CNC(=O)c1ccc(Oc2ccccc2)cc1)c1ccccc1 (stereo not shown) | 15.6%
Cc1[nH]c2ccccc2c1C(=O)CSC(=S)N1CCN(C)CC1 | 10.1%
COCCn1c(=NC(=O)c2cc(-c3cccs3)nc3ccccc23)sc2cc(S(N)(=O)=O)ccc21 | 9.95%
CCC1=C(OC(=O)N(CC)CC)N2C(=O)OC(=NCCOC)[C@]2(Cc2ccccc2)[C@H]2C1=CC[C@H]1C(=O)N(CC)C(=O)[C@H]12 | 13.2%
Fc1ccc(CSc2ccc(-c3ccc4c(c3)OCO4)nn2)cc1 | 5.64%
CCOC(=O)c1c(N)c(C#N)cn1-c1ccccc1 | 3.2%
COc1ccc(OC)c(/C=N/c2oc(-c3ccco3)c(-c3ccco3)c2C#N)c1 | 16.9%
